# Test results from PubChem BioAssay AID493208 (National Center for Advancing Translational Sciences (NCATS), 2011).
# Among all 44,000 compounds or so, about 340 (0.77%) were called active. Not shown: some 5% with an inconclusive outcome. The call rests on the fitted dose curve; in most records, active means well fitted inhibition curve with a large enough effect; inconclusive means small, poorly fitted or top-dose-only effect; inactive means flat fitted curve, though single readings scatter. Some of the results follow.
# Test: Acumen qHTS Assay for Inhibitors of the mTORC1 Signaling Pathway in MEF (Tsc2-/-, p53-/-) Cells: Sytravon; further: nearly all actives have a fitted effect of over 50% in size;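 on activity change, negative = inhibition: plate controls were DMSO for no effect and rapamycin for full effect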
# Details: phospho-rpS6 immunofluorescence/PI, 24 h; series mostly up to 38.3 µM; activity change, negative = inhibition: at the top concentration
# In short: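 Cell-based qHTS: Tsc2-/- p53-/- MEF, 24 h cpd, 37 °C; fix/perm, anti-phospho-S6 Alexa-488 + PI; Acumen 488 nm scan; pS6/PI ratio, % positive cells; rapamycin 7.5 nM = inhibition ref; PI count = viability.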
# Potency means the concentration at half of the fitted maximal effect.
Compound,"activity change, negative = inhibition",Potency
Cc1ccc(Nc2nc3ccc(C)cc3nc2-n2nc(C)cc2C)c(C)c1,inactive: -0.167%,
CC(C)C(=O)Nc1nnc(S(=O)(=O)N2CCCCCC2)s1,inactive: -17.6%,
O=C(C1COc2ccccc2O1)N1CCN(c2nc3c(F)cccc3s2)CC1 (stereo unspecified),inactive: 5.52%,
COc1ccc(N(CC(=O)NCc2ccccc2Cl)S(=O)(=O)c2c(C)[nH]c(=O)[nH]c2=O)cc1,inactive: -11.4%,
COCCNC(=O)C1CCC(CNS(=O)(=O)c2ccc3c(c2)CC(C)N3C(C)=O)CC1 (stereo unspecified),inactive: 2.37%,
COc1cc(C(CC(=O)Nc2ccc(Br)cn2)N2Cc3ccccc3C2=O)cc(OC)c1OC (stereo unspecified),inactive: -13.2%,
Cc1ccc(N(Cc2cccs2)C(=O)Nc2cccc(Cl)c2)cc1,inactive: 4.56%,
Cc1ccc(CNC(=O)c2c(O)nc3ccccn3c2=O)cc1,inactive: 1.46%,
Cc1ccc(Cn2c(=O)n(CC3CCC(C(=O)N4CCC(C)CC4)CC3)c(=O)c3sccc32)cc1 (stereo unspecified),inactive: 2.84%,
Cc1oc2c(c1C(=O)Nc1ccccc1Br)C1=NCCN1C=N2,inactive: -14%,
COc1cccc(CNC(=O)c2sc3nc4n(c(=O)c3c2C)CCC4)c1,inactive: 0%,
O=C(NCCc1cccs1)c1ccc(Cn2c(SCc3ccccc3)nc3cccnc32)cc1,inactive: -0.0387%,
COc1ccc(N2CC3=C(C2=O)C(c2ccc(O)c(OC)c2)NC(=O)N3C)cc1 (stereo unspecified),inactive: -0.244%,
CCOc1ccccc1NC(=O)Cn1cnc2c1c(=O)n(C)c(=O)n2C,inactive: 1.46%,
CCOC(=O)c1ccccc1NC(=O)c1cc2c(s1)-c1c(C)cccc1OC2,inactive: 4.44%,
CC(C)OCCCNc1sc(S(=O)(=O)c2ccccc2)nc1S(=O)(=O)c1ccc(Cl)cc1,inactive: -12.8%,
CCOc1ccccc1NC(=O)CSc1nc2c(oc3ccccc32)c(=O)n1C(C)C,inactive: -7.55%,
COCCCNC(=O)c1cc(-c2ccc(OC)cc2)nc2n[nH]c(-c3ccc(Cl)cc3)c12,inactive: -2.47%,
COc1ccc(CCNC(=O)c2cnc3ccc(C)cn3c2=O)cc1OC,inactive: 0.201%,
Cn1ncc2c(NCc3ccc(Cl)cc3)ncnc21,inactive: 7.54%,
Cc1c(C(=O)Nc2ccc(F)cc2F)oc2ccc3c(c12)C(=O)CC(C)(C)O3,inactive: 0.246%,
CCOC(=O)c1cc(-c2ccc(OC)cc2)n(CCC(=O)NCc2ccccc2OC)c1C,inactive: -0.358%,
CCOc1ccc(NC(=O)CSc2ncn[nH]2)cc1,inactive: -0.261%,
Cc1ccsc1CN(Cc1ccco1)C(=O)c1ccc(Cl)cc1,inactive: -1.3%,

Compound,"activity change, negative = inhibition",Potency
Cc1ccc(C)c(N2CCN(S(=O)(=O)c3ccc(-c4cc(C(F)(F)F)on4)s3)CC2)c1,inactive: -4.17%,
O=C(CN1C(=O)COc2ccc(S(=O)(=O)N3CCOCC3)cc21)Nc1ccc(F)c(Cl)c1,inactive: -1.73%,
O=C(Nc1nc2ccc(F)cc2s1)c1nc(SCc2ccccc2F)ncc1Cl,inactive: 1.98%,
Cc1c(Cl)cccc1NC(=O)C1CCCN(C(=O)c2cnn(-c3ccccc3)c2-n2cccc2)C1 (stereo unspecified),inactive: 5.51%,
COc1cc(OC)c(N(C)C(=O)c2cn(C)c(=O)c3cc(OC)c(OC)cc23)cc1Cl,inactive: -20.9%,
O=C(NCCc1ccc(Cl)cc1)C(=O)NCC(c1ccc2c(c1)OCO2)N1CCOCC1 (stereo unspecified),inactive: -18%,
O=C(Nc1cc(C(F)(F)F)ccc1Cl)c1cc(-c2cccs2)nc2ccccc12,inactive: -3.88%,
Cc1cc(C)c(S(=O)(=O)NCCc2sc(-c3cccnc3)nc2C)c(C)c1,inactive: -0.555%,
Cc1cc(S(=O)(=O)Nc2cc3c(cc2Cl)n(C)c(=O)c(=O)n3C)ccc1F,inactive: -5.29%,
Cn1c(=O)c2cc(C(=O)N3CCN(c4cccc(C(F)(F)F)c4)CC3)sc2c2ccccc21,inactive: 0.181%,
Cc1nn(S(=O)(=O)c2ccc(F)cc2)c(C)c1S(=O)(=O)N1CCCCC1,inactive: -13.7%,
Cc1ccc2c(c1)N(C(=O)CCC(=O)Nc1ccc(F)cc1F)CC(C)O2 (stereo unspecified),inactive: -0.668%,
Cc1c(C(=O)Nc2cccc(C(F)(F)F)c2)oc2ccc(S(=O)(=O)N3CCC4(CC3)OCCO4)cc12,inactive: 7.63%,
CC(C)(C)C(=O)Nc1nnc2n1CCS2,inactive: -0.961%,
COc1ccc(NC(=O)CSc2c3c(nc4ccccc24)CCC3)cc1Cl,inactive: -9.87%,
CCOc1ccccc1N(C)C(=O)c1cc(S(=O)(=O)NCCc2ccc(Cl)cc2)ccc1F,inactive: 10.4%,
Cc1ccccc1CNC(=O)CCc1cn(Cc2ccccc2C)c2ccccc12,inactive: 0.426%,
CC(C)(C)c1ccc(C(=O)N2CCC(c3noc(-c4ccc(S(=O)(=O)N5CCCC5)cc4)n3)CC2)cc1,inactive: -2.18%,
CCOc1ccc(NC(=O)c2ccc3c(c2)nnn3C2CCCC2)cc1,inactive: 0%,
CCN(CC)S(=O)(=O)c1ccc(NC(=O)c2ccc3c(=O)n4c(nc3c2)CCCCC4)cc1,inactive: -0.225%,
CCc1ccccc1NC(=O)CSc1nc(C)c(C(=O)Nc2ccccc2)c(-c2ccc(Cl)cc2)c1C#N,inactive: 8.91%,
Cc1ccc(NC(=O)C2CCN(S(=O)(=O)c3cccc4nonc34)CC2)c(Cl)c1,inactive: -1.88%,
O=C(Nc1ccc(-c2nc3ccccc3s2)c(O)c1)c1ccc(Br)cc1,inactive: 5.56%,
CCOC(=O)c1c(C)[nH]c(C)c1S(=O)(=O)N1CCC(C(=O)NCc2cccc(C)c2)CC1,inactive: 5.53%,

Compound,"activity change, negative = inhibition",Potency
CCOC(=O)C1=C(CS(=O)(=O)c2ccc(C(C)(C)C)cc2)NC(=O)NC1c1cccc(OC)c1 (stereo unspecified),inactive: -11.2%,
Cc1cccc(NC(=O)CSc2nnc3[nH]c(=O)cc(C)n23)c1C,inactive: 1.53%,
COc1ccc(N2CCN(C(=O)c3cnc(SC)nc3C)CC2)cc1,inactive: -7.52%,
COc1ccc(-c2cc3c(=O)n(CC(=O)Nc4ccc(Br)c(C)c4)ccn3n2)cc1OC,inactive: 8.77%,
O=C(CCn1c(=O)c2cccn2c2cccnc21)Nc1ccccc1Br,inactive: 3.08%,
O=C(CSCc1ccc(F)cc1)N1CCc2c([nH]c3ccccc23)C1c1ccc(F)cc1 (stereo unspecified),inactive: -10%,
Cc1cc(S(=O)(=O)Nc2cc3c(cc2NCc2ccccc2)n(C)c(=O)n3C)ccc1F,inactive: 0.523%,
Cc1ccc(C)c(Nc2nc(-c3ccccc3)c3cc(Br)ccc3n2)c1,inactive: -0.464%,
O=C(COc1ccccc1)NCCc1csc(-c2cccc(F)c2)n1,inactive: -8.6%,
COC(=O)c1cccc(Cn2nnc3sc4c(c3c2=O)CCC(C(C)(C)C)C4)c1 (stereo unspecified),inactive: 4.14%,
COc1ccc(CCNC(=O)CCCCn2c(=O)c3ccccc3n(CC(=O)Nc3ccc(C)cc3C)c2=O)cc1OC,inactive: 2.94%,
CCN1C(=O)C(Cc2nc3ccccc3c(=O)n2-c2ccc(OC)cc2)c2cc(C)ccc21 (stereo unspecified),inactive: 3.36%,
N#Cc1cccc(NC(=O)Cn2nc(Cc3ccncc3)c3ccccc3c2=O)c1,inactive: -16.4%,
Cc1nnc(N2CCCC(C(=O)Nc3cccc(C(F)(F)F)c3)C2)c2nn(-c3ccccc3)c(C)c12 (stereo unspecified),inactive: -8.16%,
O=C(Nc1cccc(Cl)c1)c1cc(-c2ccc3c(c2)OCCO3)on1,inactive: -14.7%,
Cc1cccc(N(C)C(CNS(=O)(=O)c2ccccc2)c2ccccc2)c1 (stereo unspecified),inactive: -4.15%,
Cc1cccc(C(=O)Nc2cccc(OCc3cc(=O)n4cccc(C)c4n3)c2)c1,inactive: -9.94%,
CCN(CC)CCNC(=O)C(=O)NCC(c1cccnc1)N1CCN(c2ccccc2)CC1 (stereo unspecified),inactive: 0%,
Cc1cc(Sc2ccc(Cl)cc2)nc2ccccc12,inactive: -0.662%,
O=C(CSc1ccccc1)NCc1ccc2c(c1)CCN2C(=O)c1ccc(Cl)cc1,inactive: -7.76%,
CC(C)(C)OC(=O)N1CCC(c2c(C(=O)NC3CCCCC3)cnn2-c2cccc(F)c2)CC1,inactive: -0.992%,
Cn1nnnc1SCCNCc1ccc(OCc2ccccc2Cl)cc1,inactive: -9.26%,
CC(NC(=O)c1ccc(NC(=O)c2nsc3ccccc23)cc1)c1ccccc1 (stereo unspecified),inactive: 2.42%,
Cc1cccc(C(=O)Nc2cccc(C(=O)OCc3cc(=O)n4nc(C(C)C)sc4n3)c2)c1,inactive: 13%,

Compound,"activity change, negative = inhibition",Potency
Cc1ccc(N(C)S(=O)(=O)c2ccc3[nH]c4c(c3c2)CCCC4)cc1,inactive: -15.4%,
O=C(COc1ccccc1)NCc1ccc2c(c1)CCN2C(=O)c1ccccc1,inactive: -12.1%,
COC(=O)c1c(NC(=O)Cc2coc3ccc(C)cc23)sc2c1CCC2,inactive: 4.55%,
COc1ccc(-n2nc(C(=O)Nc3ccc(Cl)cn3)c3c4ccccc4n(C)c3c2=O)cc1Cl,inactive: 0.626%,
Cc1ccc(NC(=O)CSc2c3c(nc4ccccc24)CCCC3)cc1F,inactive: -13.4%,
Cc1ccc(CCNC(=O)c2cc(Nc3ccc(C)c(C)c3)nc3ccccc23)cc1,inactive: 0.591%,
CC(C)C1C(=O)Nc2ccc(S(=O)(=O)NCc3ccc(Cl)cc3)cc21 (stereo unspecified),inactive: 0.297%,
COc1ccc(C2C(C(N)=O)=C(C)Nc3nc(CCCO)nn32)cc1 (stereo unspecified),inactive: -1.82%,
Cc1cc(F)ccc1-n1nnc(C(N)=O)c1C,inactive: 0.6%,
CC(=O)c1cccc(NC(=O)c2c(-c3ccccc3)c(-c3ccccc3)nn(C)c2=O)c1,inactive: -4.76%,
CN(Cc1ccccc1)c1ccc(-c2nc(-c3ccco3)no2)cc1[N+](=O)[O-],inactive: -2.58%,
O=C(c1ccccc1Cl)N(Cc1ccco1)Cc1ccco1,inactive: 1.05%,
CCOC(=O)c1ccc(NC(=O)CC2C(=O)N(c3ccc(C)cc3)C(=O)N2C2CCCCC2)cc1 (stereo unspecified),inactive: 3.1%,
Cc1cc(C(F)(F)F)nn1-c1nc(-c2ccccc2)cc(C(F)(F)F)n1,inactive: -16.4%,
Cc1cc(=O)n(CC(=O)Nc2ccc([N+](=O)[O-])cc2)c(-n2nc(C)cc2C)n1,inactive: 0.666%,
COc1ccc(CCN2C(=O)c3[nH]nc(-c4ccccc4O)c3C2c2cccc(OC)c2)cc1 (stereo unspecified),,active: 14.7 µM
Cc1ccccc1NC(=O)Cn1c(=O)n(CCc2ccccc2)c(=O)c2sc3ccccc3c21,inactive: -6.49%,
Cc1[nH]c2ccccc2c1C(c1ccccc1)c1cccs1 (stereo unspecified),inactive: 6.36%,
Cc1cccc(-n2c(SCc3nc(-c4ccccc4C)no3)nnc2-c2ccccc2)c1,inactive: -6.08%,
CN1CCN(c2oc(/C=C/c3ccc(F)cc3)nc2C#N)CC1,inactive: 3.16%,
CCOC(=O)c1ccccc1NS(=O)(=O)c1ccc(N2CCCCS2(=O)=O)cc1,inactive: 0%,
COc1cc(NC(=O)c2nn(-c3ccc(C)cc3)c(=O)c3c2c2ccccc2n3C)cc(OC)c1OC,inactive: 1.17%,
CCc1nn(CC(=O)NC(C)CC)c(=O)c2cc3c(OC)cccc3n12 (stereo unspecified),inactive: -0.289%,
COc1ccc(-c2noc(-c3ccc(N4CCN(c5ccc(OC)cc5)CC4)c([N+](=O)[O-])c3)n2)cc1,inactive: 1.49%,
